In brackets after ≈: the same amount, converted by molar mass.

The subject of the test is Staphylococcus aureus S13E. Type of test: cell-based. On the procedure:
The A80915 antibiotics inhibit the growth of bacteria which are pathogenic to animal life. […] The MIC's in Table III were determined by conventional agar-dilution assays.
Usually MIC stands for the smallest concentration in the dilution series that meets the test's criterion for growth inhibition. Molecule `C=C1CCC(Cl)C(C)(C)C1CC12OC(C)(C)C(Cl)C=C1C(=O)c1c(cc(O)c(C)c1O)C2=O` (centres unmarked) [Compound 5] gave a minimum inhibitory concentration (MIC) of 4 µg/mL (≈ 8.11 µM). To `C=C1CCC(Cl)C(C)(C)C1CC12OC(C)(C)C(Cl)CC1(Cl)C(=O)c1c(cc(O)c(C)c1O)C2=O` (centres unmarked) [A80915A] belongs 2 µg/mL (≈ 3.77 µM); to `Cc1c([O-])c([N+]#N)c2c(c1O)C(=O)[C@@]1(Cl)C[C@@H](Cl)C(C)(C)O[C@@]1(C[C@H]1C(C)(C)[C@@H](Cl)CC[C@]1(C)O)C2=O` [A80915D], 1 µg/mL (≈ 1.74 µM). Take `C=C1CCC(Cl)C(C)(C)C1CC12OC(C)(C)C(Cl)CC1(Cl)C(=O)c1c(O)c(C)c([O-])c([N+]#N)c1C2=O` (centres unmarked) [A80915B]: it took 2 µg/mL (≈ 3.6 µM) to inhibit growth (MIC). To `Cc1c(O)cc2c(c1O)C(=O)[C@@]1(Cl)C[C@@H](Cl)C(C)(C)O[C@@]1(C[C@H]1C(C)(C)[C@@H](Cl)CC[C@]1(C)O)C2=O` [A80915C] belongs above 128 µg/mL.

These data come from patent US4904590A, “Antibiotic A80915 and process for its production” (Eli Lilly and Company, priority 1988, dated 1990).
